Test results as given in patent US20190016816A1 (APTEVO RESEARCH AND DEVELOPMENT, published 2019).
Values belong to the binder of their own block, whether it stands above or below them.

What was measured:
human 5T4 on cells [1] = molecular target: T1, human 5T4 on cells (human, UniProt Q13641 32-420); test: flow cytometry, murine CT26 cells expressing human 5T4, labelled anti-human IgG secondary, MFI (mean)
T1 construct: also called TPBG; hu5T4
T1 sequence: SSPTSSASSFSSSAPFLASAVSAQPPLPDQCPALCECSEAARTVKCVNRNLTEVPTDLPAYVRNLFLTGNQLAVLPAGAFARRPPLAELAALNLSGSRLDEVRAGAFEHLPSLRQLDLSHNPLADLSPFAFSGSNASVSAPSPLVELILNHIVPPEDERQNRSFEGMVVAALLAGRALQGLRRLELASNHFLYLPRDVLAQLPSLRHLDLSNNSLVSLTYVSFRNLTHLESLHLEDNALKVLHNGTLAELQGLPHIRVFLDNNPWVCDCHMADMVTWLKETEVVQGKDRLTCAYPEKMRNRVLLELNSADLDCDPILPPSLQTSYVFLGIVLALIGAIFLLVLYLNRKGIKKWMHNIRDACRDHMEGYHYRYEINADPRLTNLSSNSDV

human CD137 on cells [2] = molecular target: T2, human CD137 on cells (human, UniProt Q07011 24-255); test: flow cytometry, CHO-K1/human CD137 cells, PE anti-human IgG Fc secondary, MFI (mean)
T2 construct: also called 4-1BB; TNFRSF9 (CHO-K1/human CD137 cells)
Experimental: Binding studies on CHO-K1 cells lines expressing CD137 were performed by standard flow cytometry-based staining procedures. CHO-K1 cells (generated by Alligator) were transfected with human or cynomolgus macaque CD137. A typical experiment would label approximately 100,000 cells per well, in 96-well plates, with a range of 100 nM to 0.05 nM binding molecule in 50 μL of saline buffer with 2% BSA and 2 mM EDTA, for 30 min on ice, followed by washes and incubation with PE-labeled secondary antibody, goat anti-human IgG Fcγ ([…]), for 20 minutes on ice. Signal from bound molecules was detected using a LSR-II™ or a Symphony A3 flow cytometer (BD Biosciences) and analyzed by FlowJo flow cytometry analysis software. […] Nonlinear regression analysis to determine EC₅₀ values was performed in GraphPad Prism 6® graphing and statistics software.

human CD137 on cells [3] = molecular target: T2, human CD137 on cells; test: cell-based or functional assay
T2 sequence (Q07011 24-255 limits assumed): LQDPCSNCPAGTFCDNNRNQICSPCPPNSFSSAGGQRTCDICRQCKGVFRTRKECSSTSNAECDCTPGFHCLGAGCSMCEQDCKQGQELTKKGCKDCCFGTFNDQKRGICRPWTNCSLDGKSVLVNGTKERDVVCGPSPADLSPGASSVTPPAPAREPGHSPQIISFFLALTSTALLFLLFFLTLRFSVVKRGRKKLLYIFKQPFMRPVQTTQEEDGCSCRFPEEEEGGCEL

cynomolgus 5T4 on cells [4] = molecular target: T3, cynomolgus 5T4 on cells (cynomolgus macaque, UniProt Q4R8Y9 35-420); test: flow cytometry, CHO-K1/cynomolgus 5T4 transfectants, labelled anti-human IgG secondary, MFI (mean)
T3 construct: whole, on cells; also called CHO-K1/cynomolgus 5T4 transfectants
T3 sequence (looked up): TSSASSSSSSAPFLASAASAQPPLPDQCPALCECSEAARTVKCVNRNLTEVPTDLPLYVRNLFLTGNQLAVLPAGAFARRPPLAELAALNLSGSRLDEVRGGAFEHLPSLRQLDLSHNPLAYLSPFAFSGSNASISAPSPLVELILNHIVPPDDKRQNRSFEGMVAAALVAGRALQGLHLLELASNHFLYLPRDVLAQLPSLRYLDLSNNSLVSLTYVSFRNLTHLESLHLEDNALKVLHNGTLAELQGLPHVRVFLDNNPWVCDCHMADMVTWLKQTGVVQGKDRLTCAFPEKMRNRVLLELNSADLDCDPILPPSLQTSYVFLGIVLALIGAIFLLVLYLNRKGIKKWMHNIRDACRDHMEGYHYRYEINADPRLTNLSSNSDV
Experimental: (§1) Binding studies were performed by standard flow cytometry-based staining procedures two cell lines expressing 5T4:CHO-K1 cells (obtained from Alligator) transduced with human or cynomolgus macaque 5T4 and SKOV-3 human ovarian adenocarcinoma cells which express (human) 5T4. All labeling and washes were performed in U-bottom 96-well plates in saline buffer with 0.1% BSA and 2 mM EDTA. Cell were plated at approximately 100,000 cells per well and incubated with a range of 100 nM to 0.05 nM concentrations of test molecules in […], for 30 minutes on ice. Cells were washed three times then incubated for another 30 min on ice with fluorescently-labeled secondary polyclonal antibody, F(ab′)² goat anti-human IgG (Jackson ImmunoResearch Laboratories). The cells were then washed twice and the samples acquired in a BD LSRII or a Symphony A3 flow cytometer. The sample files were analyzed using FlowJo software; the mean fluorescence intensity (MFI-mean) or median fluorescence intensity (MFI-median) of the live population of cells in each well was calculated after gating on live cells (forward vs side scatter). Nonlinear regression analysis to determine EC₅₀ values was performed in GraphPad Prism 6® graphing and statistics software.

[5] = molecular target: T4, cynomolgus CD137 on cells (cynomolgus macaque, UniProt A9YYE7 24-254); test: flow cytometry, CHO-K1 cells expressing cynomolgus CD137, PE anti-human IgG Fc secondary, MFI (median)
T4 construct: whole, on cells; also called CHO-K1/cynomolgus CD137 cell line; cynomolgus monkey CD137 on CD3-stimulated primary CD8 T cells
T4 sequence (A9YYE7 entry or part of it): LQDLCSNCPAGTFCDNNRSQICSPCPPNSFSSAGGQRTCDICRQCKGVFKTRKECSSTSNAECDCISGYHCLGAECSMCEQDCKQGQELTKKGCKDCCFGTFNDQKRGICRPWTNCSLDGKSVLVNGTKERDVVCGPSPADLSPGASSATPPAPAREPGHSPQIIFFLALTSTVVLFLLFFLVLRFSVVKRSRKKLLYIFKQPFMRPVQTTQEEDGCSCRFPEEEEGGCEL
Experimental: (§2) Binding studies on CHO-K1 cells lines expressing CD137 were performed by standard flow cytometry-based staining procedures. CHO-K1 cells (generated by Alligator) were transfected with human or cynomolgus macaque CD137. A typical experiment would label approximately 100,000 cells per well, in 96-well plates, with a range of 100 nM to 0.05 nM binding molecule in 50 μL of saline buffer with 2% BSA and 2 mM EDTA, for 30 min on ice, followed by washes and incubation with PE-labeled secondary antibody, goat anti-human IgG Fcγ ([…]), for 20 minutes on ice. Signal from bound molecules was detected using a LSR-II™ or a Symphony A3 flow cytometer (BD Biosciences) and analyzed by FlowJo flow cytometry analysis software. Median fluorescence intensity (MFI-median) of bound molecules on live cells was determined after exclusion of doublets cells. Nonlinear regression analysis to determine EC₅₀ values was performed in GraphPad Prism 6® graphing and statistics software.

human 5T4 on cells [6] = molecular target: T1, human 5T4 on cells; test: flow cytometry, CHO-K1 cells expressing human 5T4, labelled anti-human IgG secondary, MFI (mean)
Experimental: as §1

human CD137 on cells [7] = molecular target: T2, human CD137 on cells; test: flow cytometry, CHO-K1 cells expressing human CD137, PE anti-human IgG Fc secondary, MFI (median)
Experimental: as §2

human 5T4 on cells [8] = molecular target: T1, human 5T4 on cells; test: flow cytometry, SKOV-3 cells (endogenous human 5T4), labelled anti-human IgG secondary, MFI (mean)
Experimental: as §1

cynomolgus 5T4 on cells [9] = molecular target: T3, cynomolgus 5T4 on cells; test: flow cytometry, CHO-K1 cells expressing cynomolgus 5T4, labelled anti-human IgG secondary, MFI (median)
Experimental: as §1

human CD137 on cells [10] = molecular target: T2, human CD137 on cells; test: cell-based or functional assay; remark: listed apart in the source
human 5T4 on cells [11] = molecular target: T1, human 5T4 on cells; test: flow cytometry on human 5T4-expressing cells

B1: ALG.APV-209 (bispecific antibody)
chain: EVQLLESGGGLVQPGGSLRLSCAASGFTFSHGSMYWVRQAPGKGLEWVSSISSGSGSTYYADSVKGRFTISHDNSKNTLYLQMNSLRAEDTAVYYCARSSYYGSYYSIDYWGQGTLVTVSSGGGGSGGGGSGGGGSGGGGSDIQMTQSPSSLSASVGDRVTITCRASQSISSYLNWYQQKPGKAPKLLIYAASSLQSGVPSRFSGSGSGTDFTLTISSLQPEDFATYYCQQYYDNLPTFGQGTKLEIKEPKSSDKTHTCPPCPAPEAAGAPSVFLFPPKPKDTLMISRTPEVTCVVVDVSHEDPEVKFNWYVDGVEVHNAKTKPREEQYNSTYRVVSVLTVLHQDWLNGKEYKCAVSNKALPAPIEKTISKAKGQPREPQVYTLPPSRDELTKNQVSLTCLVKGFYPSDIAVEWESNGQPENNYKTTPPVLDSDGSFFLYSKLTVDKSRWQQGNVFSCSVMHEALHNHYTQKSLSLSPGSGGGGSGGGGSGGGGSPS[letters of about 100 residues left out]YYGGYYSAWMDYWGQGTLVTVSSGGGGSGGGGSGGGGSGGGGSDIQMTQSPSSLSASVGDRVTITCRASQSISSFLNWYQQKPGKAPKLLIYAASSLQSGVPSRFSGSGSGTDFTLTISSLQPEDSATYYCQQTYGYLHTFGQGTKLEIKR
notes: Optimized ADAPTIR scFv-Fc-scFv homodimer, no stabilizing disulfide in the 1210 scFv
- EC50 (human 5T4 on cells [1]): 2.9 nM
- Maximum MFI (human 5T4 on cells [1]): 1710
- EC50 (human CD137 on cells [2]): 0.56 nM
- Maximum MFI (human CD137 on cells [2]): 8630
- CD137 reporter assay with HCC1143 cells, EC50 against ALG.APV-004 (human CD137 on cells [3]): 10 fold lower EC50
- EC50 (cynomolgus 5T4 on cells [4]): 8.9 nM
- Maximum MFI (cynomolgus 5T4 on cells [4]): 25400

B4: ALG.APV-010 (bispecific antibody)
chain: EVQLLESGGGLVQPGGSLRLSCAASGFTFSYGSMYWVRQAPGKGLEWVSSISSGSGSTYYADSVKGRFTISRDNSKNTLYLQMNSLRAEDTAVYYCARSSYYGSYYSIDYWGQGTLVTVSSGGGGSGGGGSGGGGSGGGGSDIQMTQSPSSLSASVGDRVTITCRASQSISSYLNWYQQKPGKAPKLLIYAASSLQSGVPSRFSGSGSGTDFTLTISSLQPEDFATYYCQQYYDNLPTFGQGTKLEIKSSSEPKSSDKTHTCPPCPAPEAAGAPSVFLFPPKPKDTLMISRTPEVTCVVVDVSHEDPEVKFNWYVDGVEVHNAKTKPREEQYNSTYRVVSVLTVLHQDWLNGKEYKCAVSNKALPAPIEKTISKAKGQPREPQVYTLPPSRDELTKNQVSLTCLVKGFYPSDIAVEWESNGQPENNYKTTPPVLDSDGSFFLYSKLTVDKSRWQQGNVFSCSVMHEALHNHYTQKSLSLSPGSGGGGSGGGGSGGGGSPSDIQMTQSPSSLSASVGDRVTITCRASQSISSYLNWYQQKPGKAPKLLIYAASSLQSGVPSRFSGSGSGTDFTLTISSLQPEDFATYYCQQTYGYLHTFGQGTKLEIKGGGGSGGGGSGGGGSGGGGS[letters of about 100 residues left out]YYGGYYSAWMDYWGQGTLVTVSS
notes: ADAPTIR scFv-Fc-scFv homodimer, 1210 scFv in VL-VH order; also called 1618 VHVL -Fc-1210 VLVH
- CD137 Reporter Assay EC50 (human CD137 on cells [10]): 2.6 nM
- EC50 (human 5T4 on cells [11]): 50.9 nM

Now from value to binder:

- EC50 (human 5T4 on cells [1]): 2.1 nM
- Maximum MFI (human 5T4 on cells [1]): 1460
- EC50 (human CD137 on cells [2]): 0.6 nM
- Maximum MFI (human CD137 on cells [2]): 8670
- CD137 reporter assay with HCC1143 cells, EC50 against ALG.APV-004 (human CD137 on cells [3]): 10 fold lower EC50
- EC50 (cynomolgus 5T4 on cells [4]): 7.4 nM
- Maximum MFI (cynomolgus 5T4 on cells [4]): 24900
B2: ALG.APV-208 (bispecific antibody)
chain: EVQLLESGGGLVQPGGSLRLSCAASGFTFSHGSMYWVRQAPGKGLEWVSSISSGSGSTYYADSVKGRFTISHDNSKNTLYLQMNSLRAEDTAVYYCARSSYYGSYYSIDYWGQGTLVTVSSGGGGSGGGGSGGGGSGGGGSDIQMTQSPSSLSASVGDRVTITCRASQSISSYLNWYQQKPGKAPKLLIYAASSLQSGVPSRFSGSGSGTDFTLTISSLQPEDFATYYCQQYYDNLPTFGQGTKLEIKEPKSSDKTHTCPPCPAPEAAGAPSVFLFPPKPKDTLMISRTPEVTCVVVDVSHEDPEVKFNWYVDGVEVHNAKTKPREEQYNSTYRVVSVLTVLHQDWLNGKEYKCAVSNKALPAPIEKTISKAKGQPREPQVYTLPPSRDELTKNQVSLTCLVKGFYPSDIAVEWESNGQPENNYKTTPPVLDSDGSFFLYSKLTVDKSRWQQGNVFSCSVMHEALHNHYTQKSLSLSPGSGGGGSGGGGSGGGGSPS[letters of about 100 residues left out]YYGGYYSAWMDYWGQGTLVTVSSGGGGSGGGGSGGGGSGGGGSDIQMTQSPSSLSASVGDRVTITCRASQSISSYLNWYQQKPGKAPKLLIYAASSLQSGVPSRFSGSGSGTDFTLTISSLQPEDSATYYCQQTYGYLHTFGQGTKLEIKR
notes: Optimized ADAPTIR scFv-Fc-scFv homodimer

- EC50 [5]: 1.7 nM
- EC50 (human 5T4 on cells [1]): 2.5 nM
- Maximum MFI (human 5T4 on cells [1]): 1740
- EC50 (human CD137 on cells [2]): 0.39 nM
- Maximum MFI (human CD137 on cells [2]): 8210
- CD137 reporter assay with HCC1143 cells, EC50 against ALG.APV-004 (human CD137 on cells [3]): 10 fold lower EC50
- CD137 reporter assay with HCC1143 cells, EC50 against ALG.APV-006 and ALG.APV-004 (human CD137 on cells [3]): ≤ 6 fold lower EC50
- EC50 (cynomolgus 5T4 on cells [4]): 10.1 nM
- Maximum MFI (cynomolgus 5T4 on cells [4]): 26800
- EC50 (human 5T4 on cells [6]): 10.1 nM
- Maximum MFI (human 5T4 on cells [6]): 14200
- EC50 (human CD137 on cells [7]): 0.9 nM
- EC50 (human 5T4 on cells [8]): 15.8 nM
- Maximum MFI (human 5T4 on cells [8]): 1780
- EC50 (cynomolgus 5T4 on cells [9]): 51 nM
- Maximum MFI (cynomolgus 5T4 on cells [9]): 31100
B3: ALG.APV-179 (bispecific antibody)
chain: EVQLLESGGGLVQPGGSLRLSCAASGFTFSHGSMYWVRQAPGKGLEWVSSISSGSGSTYYADSVKGRFTISHDNSKNTLYLQMNSLRAEDTAVYYCARSSYYGSYYSIDYWGQGTLVTVSSGGGGSGGGGSGGGGSGGGGSDIQMTQSPSSLSASVGDRVTITCRASQSISSYLNWYQQKPGKAPKLLIYAASSLQSGVPSRFSGSGSGTDFTLTISSLQPEDFATYYCQQYYDNLPTFGQGTKLEIKSSEPKSSDKTHTCPPCPAPEAAGAPSVFLFPPKPKDTLMISRTPEVTCVVVDVSHEDPEVKFNWYVDGVEVHNAKTKPREEQYNSTYRVVSVLTVLHQDWLNGKEYKCAVSNKALPAPIEKTISKAKGQPREPQVYTLPPSRDELTKNQVSLTCLVKGFYPSDIAVEWESNGQPENNYKTTPPVLDSDGSFFLYSKLTVDKSRWQQGNVFSCSVMHEALHNHYTQKSLSLSPGSGGGGSGGGGSGGGGSPS[letters of about 100 residues left out]YYGGYYSAWMDYWGQGTLVTVSSGGGGSGGGGSGGGGSGGGGSDIQMTQSPSSLSASVGDRVTITCRASQSISSFLNWYQQKPGKAPKLLIYAASSLQSGVPSRFSGSGSGTDFTLTISSLQPEDSATYYCQQTYGYLHTFGQGTKLEIKR
notes: as for B2
